# Data taken from the supplement of paper PMC3334620.
# Whole data set: some 33,000 sequences, median “E-score (-0.5 to 0.5)” near -0.054, cut for the highest 2% near 0.35. Some of the results follow.
# Biological target: T1, Stb5 (UniProt P38699)
# T1 sequence: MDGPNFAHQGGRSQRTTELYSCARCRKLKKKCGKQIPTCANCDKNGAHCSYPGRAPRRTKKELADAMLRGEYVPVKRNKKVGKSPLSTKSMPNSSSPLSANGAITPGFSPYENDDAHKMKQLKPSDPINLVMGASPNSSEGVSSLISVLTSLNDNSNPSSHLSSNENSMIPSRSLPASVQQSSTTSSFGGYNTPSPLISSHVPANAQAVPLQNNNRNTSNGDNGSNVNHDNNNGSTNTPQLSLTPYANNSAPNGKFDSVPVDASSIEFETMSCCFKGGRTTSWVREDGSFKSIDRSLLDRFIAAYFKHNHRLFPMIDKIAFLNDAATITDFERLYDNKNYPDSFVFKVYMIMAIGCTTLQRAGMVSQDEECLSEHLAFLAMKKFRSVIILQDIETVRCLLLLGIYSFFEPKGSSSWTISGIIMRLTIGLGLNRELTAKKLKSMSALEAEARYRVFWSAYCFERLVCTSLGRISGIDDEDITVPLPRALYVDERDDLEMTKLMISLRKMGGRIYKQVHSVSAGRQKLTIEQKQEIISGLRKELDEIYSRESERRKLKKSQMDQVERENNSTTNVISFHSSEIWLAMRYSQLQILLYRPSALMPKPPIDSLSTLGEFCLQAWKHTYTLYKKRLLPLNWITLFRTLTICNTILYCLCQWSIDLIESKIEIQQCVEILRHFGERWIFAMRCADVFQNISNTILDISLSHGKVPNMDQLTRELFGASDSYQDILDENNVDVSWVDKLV
# Experiment: PBM E-score (8-mer binding enrichment) (E-score (-0.5 to 0.5)); higher = stronger / more preferred TF binding; most listed sequences are background and not binding sites
# Conditions: protein concentration: 200 nM; construct: GST-full length
# How it was run: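 For each ungapped eight-base word taken together with its reverse complement, the Universal PBM Analysis Suite assigned an E-score. Binding data came from GST-tagged yeast transcription factors, applied at about 100-200 nM, on universal all-10-mer Agilent arrays made double-stranded by primer extension. Fluorescent anti-GST marked bound protein, and scans were normalised with masliner.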
row,Sequence,PBM E-score
1,GCACGCAC,0.00442
2,AACGGGAG,0.137
3,TCACGCGA,-0.0286
4,AAGCTGCT,-0.182
5,TAGACGGA,0.202
6,GAGCTTTA,0.0494
7,GCGGGACC,0.237
8,CCTCGAGA,-0.223
9,ACCTCACT,0.00558
10,ACACGTAG,-0.15
11,CGGTAGGC,0.162
12,GTGGCTTA,-0.171
13,CTTCCAAC,-0.12
14,CGCAGTCC,0.0154
15,GAGGCTTA,-0.203
16,CGTAGCAA,-0.201
17,AGTGTACA,-0.174
18,AGGGGAGA,-0.196
19,TTTTAAAA,0.242
20,GCGGAATA,0.138
21,GCATGAAC,0.0263
22,CGGCGTTC,0.342
23,CCCGACGA,0.31
24,ATTGATAA,-0.248
25,CCTAGTAG,-0.143

row,Sequence,PBM E-score
1,CCTGGTAA,-0.226
2,CAGATGGG,-0.282
3,ACCATCGT,-0.0656
4,ACCGAATA,0.0403
5,CAAGACGG,0.125
6,GTCCCGGA,0.258
7,CACCATGC,0.0199
8,GAGTTTTA,0.172
9,AGCACAAA,-0.177
10,ATAATTAG,0.0459
11,ACCATGTG,-0.113
12,AAAGCGTC,-0.0832
13,TCCCATCA,-0.11
14,GCGTGGAA,-0.0902
15,GTACAAAC,0.0439
16,TATGGTAA,-0.0663
17,GGCATGTA,-0.11
18,CCAGACCG,0.161
19,CATCCACC,-0.0273
20,GTAAGAAA,0.0351
21,AACGAGTC,-0.219
22,AGCCTCGC,-0.0812
23,AGCATTGG,-0.164
24,CATAACCA,-0.25
25,ATTAGTGA,0.00773

row,Sequence,PBM E-score
1,GTGAGTCA,-0.176
2,AGCCCGGC,0.284
3,CCCACAGC,-0.146
4,AAAGTACT,-0.0364
5,GAGACTCC,0.0906
6,CGCTGTCC,0.121
7,CAAAAGTG,-0.0942
8,AGGAGAGA,-0.133
9,GTCAAGTA,-0.184
10,CGAAAGTC,0.0398
11,CACTGCGC,-0.108
12,AAAGAGTG,-0.173
13,AGTAAAAG,-0.0967
14,GTCCACTA,-0.0867
15,AACCCAGG,-0.233
16,ATTGCGAA,0.0132
17,AGTCGGTA,0.36
18,ACTCTACC,-0.0317
19,TGGAAGAA,-0.0838
20,ATCATGCC,0.0134
21,GGTGGTAA,0.248
22,AGTGCTGC,-0.18
23,CAGTTATC,0.0128
24,CAGGTTAA,-0.0457
25,AAACTCTA,-0.134

row,Sequence,PBM E-score
1,CTATGAGA,-0.27
2,AAAATCTA,-0.0323
3,ATGATGGC,-0.19
4,AGCTACAA,-0.165
5,ACGAGAGA,-0.0989
6,ATTCAGTC,0.0107
7,AAAATAGA,0.0979
8,AAATCACA,-0.128
9,AGCGGCCA,0.177
10,CGATCCCC,0.131
11,CCCGTGCC,0.221
12,GATGCTAC,-0.0969
13,AATGAAAT,0.0804
14,AACTCGGT,0.153
15,AAAAAGAA,0.175
16,GCTCTACC,-0.0504
17,AACATTGT,-0.0384
18,AGTATCCC,0.0337
19,TCTCTGAA,-0.102
20,ATAGAATC,0.175
21,AATTACGG,0.165
22,ACATGATG,-0.271
23,GTTTTTAA,0.154
24,AACCCATA,-0.291
25,ACCGTCGG,0.392

row,Sequence,PBM E-score
1,ATCGCCGG,0.368
2,GCTCCACC,0.071
3,ACCCCTCG,-0.115
4,AGTGACTG,-0.215
5,AGCTCAAC,-0.199
6,ACGGTTAT,0.169
7,CAATGAGA,-0.173
8,ACCGTCCT,0.111
9,CCTTGGAG,-0.102
10,AACGATTG,-0.156
11,ACCAGGTA,-0.0151
12,AAATTGGA,-0.0453
13,AGGTAGTG,-0.043
14,GAGAAACA,0.0306
15,CGGAGGGA,0.14
16,ATCCCTAA,-0.0887
17,CGGCCAAC,0.0563
18,AAAGCCGC,0.365
19,GCAGCGGC,0.307
20,GAGTGTGA,-0.27
21,CACACGTA,-0.275
22,CCGTTGCG,0.231
23,AGATAGTC,-0.0403
24,AAAAGGTT,-0.238
25,ATTCATCC,0.0809

row,Sequence,PBM E-score
1,CAGTGATC,-0.138
2,CCATAATA,-0.0622
3,CCCTGAGG,-0.172
4,TCTAGAGA,-0.368
5,CGTATTAG,-0.0307
6,GCGGGAAA,0.27
7,GAATTACA,0.076
8,ATGTCGGA,0.303
9,AGATCGAA,-0.212
10,GGCTGAAA,0.0322
11,CTCTCGCC,-0.152
12,AGTGGCCG,0.108
13,CGTGACCC,-0.0922
14,GTTTCTTA,0.00445
15,CCCATCGC,-0.028
16,AGCCCATA,-0.139
17,GACTGTGA,-0.114
18,AGGATTCC,-0.222
19,CTAGATGC,-0.205
20,AGCTCTTA,-0.113
21,CCATCTCC,-0.0375
22,GGCCGCCA,0.141
23,AGGAACCT,-0.115
24,ACTCGCTC,-0.333
25,ATAGGCAA,-0.235

row,Sequence,PBM E-score
1,ATGTTATA,0.0488
2,CTCAGGAA,-0.0964
3,GATTAGGA,0.0582
4,CTGAGACA,-0.214
5,TTAAGCAA,-0.139
6,AGTTTAAG,-0.0387
7,ATCCAGTG,-0.14
8,CCGCGTTA,0.257
9,GCCGGACA,0.401
10,ACGTCGGG,0.334
11,TAATTCTA,-0.0445
12,GCGCTCGA,-0.0406
13,CTCCTGGA,-0.279
14,GGTATGTA,0.18
15,ATCTCCGC,0.406
16,CAAGAACA,-0.22
17,ACCCATCT,-0.0238
18,CCACTTGC,-0.109
19,CGCAAAGC,0.205
20,ACGAGGGA,-0.069
21,CTCCGAAA,0.182
22,GAGATGGA,-0.173
